Consider 24 compounds from the supplement of paper PMC8285479.

The test system of the test is NCI-H1944. In words: normalised cell viability (NPI; 0 = phenylarsine oxide control, 1 = DMSO control) (fraction of DMSO control); NCI-H1944 is a non-small cell lung cancer line; higher = more viable cells (less compound toxicity). As to conditions: 6 days.
[1] abbreviates: glucocorticoid arm: hydrocortisone 2.75 uM co-treatment, compound 1 µM.
The mark [2] stands for this setting: glucocorticoid arm: hydrocortisone 2.75 uM co-treatment, compound 5 µM.
Setting [3] is: glucocorticoid arm: hydrocortisone 2.75 uM pre-treated 2 days and continued, compound 1 µM.
Where [4] appears, read: glucocorticoid arm: hydrocortisone 2.75 uM pre-treated 2 days and continued, compound 5 µM.
Setting [5] is: glucocorticoid arm: vehicle, compound 1 µM.
The mark [6] stands for this setting: glucocorticoid arm: vehicle, compound 5 µM.

Structures can show the parent of a compound that is named as a salt. ± gives the standard deviation of the averaged measurements. In all, about 1,900 compounds were measured (“normalised cell viability (NPI; 0 = phenylarsine oxide control, 1 = DMSO control)”: median about 1, lowest 2% from about 0.039 on). The list shows a part of the results.
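Note: CTB read-out in 384-well plates, mean of triplicate wells, normalised per plate against 1 µM phenylarsine oxide and 0.1% DMSO, compounds added 24 h after seeding.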

In the case of `Cc1nc2ccccn2c(=O)c1CCN1CCC(C(=O)c2ccc(F)cc2)CC1` [Pirenperone], the normalised cell viability is, setting by setting: under setting [1], 0.9957 ± 0.0075; under setting [2], 0.983 ± 0.034; under setting [3], 0.996 ± 0.025; under setting [4], 1.033 ± 0.0058; under setting [5], 1.02 ± 0.01; under setting [6], 1.03 ± 0.026.
In the case of `Nc1ccc(-c2ccc3ncc4ccc(=O)n(-c5cccc(C(F)(F)F)c5)c4c3c2)cn1` [Torin 2], the normalised cell viability under setting [1] was determined as 0.175 ± 0.0021; the normalised cell viability under setting [2] stood at 0.171 ± 0.0032; the normalised cell viability under setting [3] came out at 0.267 ± 0.012; the normalised cell viability under setting [4] came out at 0.299 ± 0.0097; the normalised cell viability under setting [5] came to 0.0254 ± 0.002; the normalised cell viability under setting [6] was found to be 0.0207 ± 0.0023.
Turning to `Nc1nc(N)c(N=O)c(OCC2CCCCC2)n1`, the normalised cell viability runs as follows: under setting [1], 1.02 ± 0.011; under setting [2], 1.05 ± 0.017; under setting [3], 1.037 ± 0.0058; under setting [4], 1.023 ± 0.0058; under setting [5], 1; under setting [6], 0.978 ± 0.019.
In the case of `NC(=O)c1cnccn1` [Pyrazinecarboxamide], the normalised cell viability runs as follows: under setting [1], 0.9917 ± 0.008; under setting [2], 1.01 ± 0.013; under setting [3], 0.997 ± 0.029; under setting [4], 0.995 ± 0.017; under setting [5], 0.987 ± 0.006; under setting [6], 0.978 ± 0.013.
Consider `Cn1cnc2c(F)c(Nc3ccc(Br)cc3F)c(C(=O)NOCCO)cc21`, for which the normalised cell viability stood at 0.655 ± 0.044 under setting [1]; 0.617 ± 0.026 under setting [2]; 0.7977 ± 0.0055 under setting [3]; 0.746 ± 0.012 under setting [4]; 0.639 ± 0.061 under setting [5]; 0.413 ± 0.011 under setting [6].
With `C#Cc1cccc(Nc2ncnc3cc(OCCOC)c(OCCO)cc23)c1` [OSI-420 (Desmethyl Erlotinib)], the normalised cell viability reads like this: under setting [1], 0.9597 ± 0.0064; under setting [2], 0.842 ± 0.039; under setting [3], 0.961 ± 0.018; under setting [4], 0.866 ± 0.013; under setting [5], 0.9403 ± 0.0021; under setting [6], 0.827 ± 0.032.
With `C#Cc1cccc(Nc2ncnc3cc(OCCOC)c(OCCO)cc23)c1`, the normalised cell viability is, setting by setting: under setting [1], 0.973 ± 0.049; under setting [2], 0.9 ± 0.0093; under setting [3], 0.983 ± 0.0036; under setting [4], 0.888 ± 0.0027; under setting [5], 0.95 ± 0.014; under setting [6], 0.8527 ± 0.0049.
Regarding `CN(C(Cc1ccc(OS(=O)(=O)c2cccc3cnccc23)cc1)C(=O)N1CCN(c2ccccc2)CC1)S(=O)(=O)c1cccc2cnccc12` (centres undefined), the normalised cell viability came out at 1.02 ± 0.011 under setting [1]; 0.993 ± 0.015 under setting [2]; 1.007 ± 0.0058 under setting [3]; 0.974 ± 0.029 under setting [4]; 1.01 under setting [5]; 1.01 under setting [6].
Regarding `Cc1[nH]c(=O)c(C#N)cc1-c1ccc2nccn2c1` [Olprinone hydrochloride], the normalised cell viability is, setting by setting: under setting [1], 1.02 ± 0.011; under setting [2], 1.02 ± 0.015; under setting [3], 1.03 ± 0.032; under setting [4], 1.04 ± 0.015; under setting [5], 1.02 ± 0.01; under setting [6], 1.02 ± 0.01.
Consider `CC(=O)O[C@H]1C(=O)[C@@]2(C)[C@H]([C@H](OC(=O)c3ccccc3)[C@]3(O)C[C@H](OC(=O)[C@H](O)[C@@H](NC(=O)c4ccccc4)c4ccccc4)C(C)=C1C3(C)C)[C@]1(OC(C)=O)CO[C@@H]1C[C@@H]2O` [Taxol], for which the normalised cell viability under setting [1] was 0.122 ± 0.012; the normalised cell viability under setting [2] came out at 0.117 ± 0.015; the normalised cell viability under setting [3] came out at 0.8513 ± 0.0064; the normalised cell viability under setting [4] came to 0.802 ± 0.051; the normalised cell viability under setting [5] amounted to 0.0515 ± 0.0084; the normalised cell viability under setting [6] amounted to 0.0382 ± 0.0051.
With `CC(=O)O[C@H]1C(=O)[C@@]2(C)[C@H]([C@H](OC(=O)c3ccccc3)[C@]3(O)C[C@H](OC(=O)[C@H](O)[C@@H](NC(=O)c4ccccc4)c4ccccc4)C(C)=C1C3(C)C)[C@]1(OC(C)=O)CO[C@@H]1C[C@@H]2O` [Paclitaxel; Taxol], the normalised cell viability by setting is: under setting [1], 0.131 ± 0.0057; under setting [2], 1.03 ± 0.01; under setting [3], 0.466 ± 0.032; under setting [4], 1.02 ± 0.011; under setting [5], 0.0302 ± 0.0049; under setting [6], 1.01 ± 0.01.
In the case of `COC(=O)C[C@](O)(CCCC(C)(C)O)C(=O)O[C@@H]1C(OC)=C[C@]23CCCN2CCc2cc4c(cc2[C@H]13)OCO4` [Omacetaxine mepesuccinate], the normalised cell viability by setting is: under setting [1], 0.00277 ± 0.001; under setting [2], 1.08 ± 0.026; under setting [3], 0.0391 ± 0.002; under setting [4], 1.03 ± 0.021; under setting [5], 0.00151 ± 0.00092; under setting [6], 1.017 ± 0.0058.
Consider `N=C(N)c1ccc(N)cc1` [4-Aminobenzamidine dihydrochloride], for which the normalised cell viability under setting [1] was found to be 1.01 ± 0.01; the normalised cell viability under setting [2] was determined as 0.988 ± 0.013; the normalised cell viability under setting [3] was 1.02 ± 0.011; the normalised cell viability under setting [4] was 0.995 ± 0.0042; the normalised cell viability under setting [5] was found to be 0.991 ± 0.017; the normalised cell viability under setting [6] amounted to 1.007 ± 0.0058.
Turning to `CCCN(CCC)CCc1cccc2c1CC(=O)N2` [Ropinirole hydrochloride], the normalised cell viability is, setting by setting: under setting [1], 1.003 ± 0.0058; under setting [2], 0.994 ± 0.0052; under setting [3], 1.02 ± 0.026; under setting [4], 1.02 ± 0.017; under setting [5], 0.996 ± 0.012; under setting [6], 0.995 ± 0.007.
As for `COc1ccc2cc([C@H](C)C(=O)O)ccc2c1` [(-)-Naproxen sodium salt], the normalised cell viability under setting [1] came to 1 ± 0.014; the normalised cell viability under setting [2] is 1.02 ± 0.031; the normalised cell viability under setting [3] came out at 1.003 ± 0.0061; the normalised cell viability under setting [4] stood at 1.04 ± 0.08; the normalised cell viability under setting [5] was 0.9993 ± 0.0011; the normalised cell viability under setting [6] came out at 1.01 ± 0.018.
With `C[C@]12CCC(=O)C=C1[C@@H]1C[C@@H]1[C@H]1[C@@H]3[C@@H]4C[C@@H]4[C@@]4(CCC(=O)O4)[C@@]3(C)CC[C@@H]12` [Drospirenone], the normalised cell viability came to 1.007 ± 0.0058 under setting [1]; 1.06 ± 0.023 under setting [2]; 1.01 ± 0.014 under setting [3]; 1.04 ± 0.011 under setting [4]; 1.007 ± 0.0058 under setting [5]; 0.9937 ± 0.004 under setting [6].
For `OCCn1cc(-c2cnc3nnn(Cc4ccc5ncccc5c4)c3n2)cn1`, the normalised cell viability reads like this: under setting [1], 1 ± 0.01; under setting [2], 1.02 ± 0.026; under setting [3], 1.02 ± 0.015; under setting [4], 1.02 ± 0.052; under setting [5], 1.01 ± 0.011; under setting [6], 1.02 ± 0.015.
Turning to `OC1(c2ccc(Cl)cc2)CCN(Cc2c[nH]c3ccccc23)CC1`, the normalised cell viability stood at 0.972 ± 0.021 under setting [1]; 0.852 ± 0.052 under setting [2]; 1.003 ± 0.0061 under setting [3]; 1.04 ± 0.086 under setting [4]; 0.9753 ± 0.0065 under setting [5]; 0.988 ± 0.01 under setting [6].
As for `Cc1ccc(C(=O)Nc2ccc(CN3CCN(C)CC3)c(C(F)(F)F)c2)cc1C#Cc1cnc2[nH]ncc2c1`, the normalised cell viability is 0.6 ± 0.016 under setting [1]; 0.471 ± 0.065 under setting [2]; 0.637 ± 0.016 under setting [3]; 0.788 ± 0.024 under setting [4]; 0.473 ± 0.018 under setting [5]; 0.0543 ± 0.03 under setting [6].
Take `O=C(Nc1ccc(S(=O)(=O)Nc2ccccc2Cl)c(Cl)c1)c1ccccn1`: the normalised cell viability is, setting by setting: under setting [1], 1.04 ± 0.031; under setting [2], 1.02 ± 0.01; under setting [3], 1.02 ± 0.033; under setting [4], 1.04 ± 0.032; under setting [5], 1.023 ± 0.0058; under setting [6], 1.017 ± 0.0058.
Turning to `O=c1n(CCCN2CCN(c3cccc(Cl)c3)CC2)nc2ccccn12` [Trazodone hydrochloride], the normalised cell viability runs as follows: under setting [1], 1.01; under setting [2], 0.98 ± 0.018; under setting [3], 0.905 ± 0.2; under setting [4], 0.993 ± 0.015; under setting [5], 1.017 ± 0.0058; under setting [6], 1.017 ± 0.0058.
Regarding `C=C[C@H]1CN2CC[C@H]1C[C@H]2[C@H](O)c1ccnc2ccc(OC)cc12` [Quinine sulfate], the normalised cell viability was 1.02 ± 0.01 under setting [1]; 1.03 ± 0.021 under setting [2]; 0.92 ± 0.16 under setting [3]; 1.07 ± 0.017 under setting [4]; 1.01 ± 0.01 under setting [5]; 1.02 ± 0.011 under setting [6].
In the case of `c1ccc2c(CC3=NCCN3)cccc2c1` [Naphazoline HCl], the normalised cell viability under setting [1] was found to be 1.01 ± 0.018; the normalised cell viability under setting [2] turned out to be 1.01 ± 0.023; the normalised cell viability under setting [3] stood at 1 ± 0.022; the normalised cell viability under setting [4] is 0.995 ± 0.013; the normalised cell viability under setting [5] turned out to be 0.9893 ± 0.0015; the normalised cell viability under setting [6] was 1.
With `c1ccc2c(CC3=NCCN3)cccc2c1` [Naphazoline hydrochloride], the normalised cell viability is 0.988 ± 0.01 under setting [1]; 0.953 ± 0.029 under setting [2]; 0.9967 ± 0.0058 under setting [3]; 0.965 ± 0.045 under setting [4]; 0.9937 ± 0.0025 under setting [5]; 0.987 ± 0.012 under setting [6].
